In all, about 280,000 compounds went through this assay and about 100 (0.036%) were called active. Inconclusive means that the source gave no clear call. Such entries were picked first, then a sample of the others. The call rests on the fitted dose curve; in most records, active means well fitted inhibition curve with a large enough effect in the signal ratio, with a control signal flat (not every such curve was filed as active); inconclusive means small, poorly fitted or top-dose-only effect, or effect the other way, or a change in a side signal; inactive means no such curve, though single readings can be large or run the other way; the % refers to the signal ratio. Potencies of inconclusive entries are doubtful fits and often do not repeat. A note “side channel” means that the fit belongs to a control or component signal, not to the main read-out.
What follows are compounds tested against Muscleblind-like protein 1 (Homo sapiens) (UniProt Q9NR56) (assay: qHTS Assay for Inhibitors of MBNL1-poly(CUG) RNA binding). Conditions: TR-FRET MBNL1-His/biotin-(CUG)12 binding, 665/545 ratio; activity change, negative = inhibition: at 57.5 µM (top of the series).
How it was run: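 TR-FRET readout: Ex 340 nm, 665/545 nm emission ratio, normalized to buffer-only (basal) and MBNL1-(CUG)12 controls. Complex of MBNL1-His with Biotin-(CUG)12, compounds 92 nM–58 uM, incubated 60 min at room temperature.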
On the % scale 0 is the no-effect control and ±100 the full control effect; potency means the concentration at half of the fitted maximal effect; tags describe the fitted curve by direction and shape or compound fluorescence and quenching.

UniProt Q9NR56, sequence (Q9NR56 whole entry, looked up): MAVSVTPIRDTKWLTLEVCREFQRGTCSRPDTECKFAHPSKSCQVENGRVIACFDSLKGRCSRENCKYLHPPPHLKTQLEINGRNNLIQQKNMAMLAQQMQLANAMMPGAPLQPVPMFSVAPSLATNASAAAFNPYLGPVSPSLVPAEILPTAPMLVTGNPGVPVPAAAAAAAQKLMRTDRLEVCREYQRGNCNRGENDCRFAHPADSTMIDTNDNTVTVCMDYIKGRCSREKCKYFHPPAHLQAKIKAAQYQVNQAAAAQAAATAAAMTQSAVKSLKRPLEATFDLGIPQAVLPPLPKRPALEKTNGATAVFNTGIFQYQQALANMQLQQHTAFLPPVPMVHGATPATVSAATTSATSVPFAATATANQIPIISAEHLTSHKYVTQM

| SMILES | activity change, negative = inhibition | Potency |
| --- | --- | --- |
| CC(=O)N1N=C(c2ccncc2)CC1c1ccccc1O (centres undefined) | inactive: 16% | – |
| O=C(OCC(=O)c1cccs1)c1ccc([N+](=O)[O-])o1 | – | inconclusive: 15.8 µM [quencher, side channel, partial curve] |
| CCOc1cc(/C=C2\COc3ccccc3C2=O)cc(Br)c1OCC(=O)N(C)C | inactive: -2.72% | – |
| N/C(=N\N=C\c1cccc([N+](=O)[O-])c1)c1nonc1N | – | inconclusive: 7.08 µM [quencher, side channel, partial curve] |
| CCOc1cc(C2C3=C(CC(C)(C)CC3=O)OC3=C2C(=O)CC(C)(C)C3)cc([N+](=O)[O-])c1O | – | inconclusive: 7.94 µM [quencher, side channel, full curve] |
| COc1cccc(NC(=O)N2CCCC2C(=O)Nc2ccc3c(c2)OCO3)c1 (centres undefined) | – | inconclusive: 7.08 µM [quencher, side channel, single point] |
| CCCNC(=O)C(=O)N/N=C/c1cccs1 | – | inconclusive: 39.8 µM [quencher, side channel, partial curve, poor fit] |
| CCCNc1[nH]c(=O)n(C)c(=O)c1N=O | – | inconclusive: 17.8 µM [quencher, side channel, partial curve] |
| COc1ccc(C2CC(c3ccc([N+](=O)[O-])cc3)=NN2C(C)=O)cc1 (centres undefined) | – | inconclusive: 7.08 µM [quencher, side channel, partial curve] |
| NC(=O)N/N=C1\c2ccccc2-c2c(C(N)=O)cccc21 | – | inconclusive: 14.1 µM [quencher, side channel, partial curve] |
| COc1ccc(C(=O)NNC(=O)c2cnccn2)cc1[N+](=O)[O-] | – | inconclusive: 25.1 µM [quencher, side channel, partial curve] |
| CCn1c(=S)[nH]c2cc(Cl)ccc21 | inactive: -6.38% | – |
| CSc1nc(SCC(N)=O)c2c3c(sc2n1)CN(C)CC3 | – | inconclusive: 28.2 µM [quencher, side channel, partial curve] |
| COc1cc(-c2cc(=O)c3c(O)cc(O)cc3o2)ccc1O | – | inconclusive: 35.5 µM [quencher, side channel, single point] |
| COc1ccc(C(=O)N=c2nc3ccccn3s2)cc1 | inactive: -1.06% | – |
| C[C@H](Nc1ccc(C(F)(F)F)cc1[N+](=O)[O-])C(=O)O | – | inconclusive: 20 µM [quencher, side channel, single point] |
| O=C(O)c1cc(N/N=C/c2ccc(-c3ccccc3)cc2)ccc1Cl | – | inconclusive: 39.8 µM [quencher, side channel, single point] |
| S=C(c1ccc(-c2ccc(Cl)cc2Cl)o1)N1CCCCC1 | inactive: 0.702% | – |
| CC(=O)NNC(=S)NC(=O)c1ccc(C)cc1 | – | inconclusive: 8.91 µM [quencher, side channel, partial curve] |
| Clc1cccc(Cl)c1Cn1cnc(=NCc2ccco2)c2[nH]cnc21 | – | inconclusive: 12.6 µM [inhibitor, single point] |

| SMILES | activity change, negative = inhibition | Potency |
| --- | --- | --- |
| O=C1C(=O)N(c2nccs2)C(c2ccccc2F)/C1=C(\O)c1ccc2c(c1)OCCO2 (centres undefined) | – | inconclusive: 20 µM [quencher, side channel, partial curve] |
| CCCCn1nnc(NC(=S)NC(=O)c2ccc(OCC)c([N+](=O)[O-])c2)n1 | – | inconclusive: 31.6 µM [quencher, side channel, single point] |
| CCOC(=O)C1CCN(C(=O)COC(=O)CSc2ccc(C(N)=O)cc2[N+](=O)[O-])CC1 | – | inconclusive: 14.1 µM [quencher, side channel, partial curve] |
| O=C(NNC(=S)NCc1ccccc1)c1cccc([N+](=O)[O-])c1 | – | inconclusive: 31.6 µM [quencher, side channel, single point] |
| COc1ccccc1/C=C1\SC(=S)N(CCC(=O)NCCCN2CCOCC2)C1=O | – | inconclusive: 11.2 µM [quencher, side channel, partial curve] |
| C=CCn1c(SCC(=O)Nc2ncc(Cc3ccc(C)c(Cl)c3)s2)nnc1-c1ccncc1 | – | inconclusive: 5.62 µM [fluorescent, side channel, full curve, poor fit] |
| Cc1cc(C)n2nc(C(=O)NCc3ccccc3)nc2n1 | – | inconclusive: 4.47 µM [quencher, side channel, partial curve] |
| N#CC1=C(N)N(c2ccccc2C#N)C2=C(C(=O)CCC2)C1c1ccsc1 (centres undefined) | – | inconclusive: 31.6 µM [quencher, side channel, single point] |
| CCN(CC)CCCNC(=O)CSc1c2c(nc3cc(Cl)ccc13)CCCC2 | inactive: 98.8% | – |
| O=c1c2ccccc2nc(-c2ccccc2)n1/N=C/c1ccc([N+](=O)[O-])cc1 | – | inconclusive: 0.1 µM [fluorescent, side channel, full curve] |
| Cc1cc(C)c(S(C)(=O)=O)c(Oc2cccc(Cl)c2)n1 | – | inconclusive: 25.1 µM [quencher, side channel, single point] |
| COC(=O)c1ccccc1NC(=O)c1ccc2nccnc2c1 | – | inconclusive: 17.8 µM [quencher, side channel, partial curve] |
| COCCn1nnnc1C(c1cc2cc(C)ccc2[nH]c1=O)N1CCCCCC1 (centres undefined) | – | inconclusive: 20 µM [quencher, partial curve] |
| Cc1ccccc1Sc1ncnc2onc(C)c12 | inactive: -2.22% | – |
| COc1ccccc1-c1cc(SC)c(C#N)c(=O)o1 | inactive: 7.35% | – |
| CC(C)Oc1cccc(C(=O)Nc2ncn[nH]2)c1 | inactive: -0.28% | – |
| Nc1ccc(C(=O)Oc2ccc([N+](=O)[O-])cc2)c(O)c1 | – | inconclusive: 22.4 µM [quencher, side channel, partial curve] |
| S=c1[nH]ncn1/N=C/c1ccc(N2CCOCC2)cc1 | – | inconclusive: 17.8 µM [quencher, side channel, partial curve] |
| CC(=O)Nc1ccc(NC(=O)c2nc(S(=O)(=O)Cc3cccc(C)c3)ncc2Cl)cc1 | – | inconclusive: 31.6 µM [quencher, side channel, single point] |
